Source: the supplement of paper PMC3334620
Whole data set: some 33,000 sequences, median “E-score (-0.5 to 0.5)” near -0.04, cut for the highest 2% near 0.36. This is one part of the list.

Molecular target: T1, Hmlalpha2 (UniProt P0CY09)
T1 sequence: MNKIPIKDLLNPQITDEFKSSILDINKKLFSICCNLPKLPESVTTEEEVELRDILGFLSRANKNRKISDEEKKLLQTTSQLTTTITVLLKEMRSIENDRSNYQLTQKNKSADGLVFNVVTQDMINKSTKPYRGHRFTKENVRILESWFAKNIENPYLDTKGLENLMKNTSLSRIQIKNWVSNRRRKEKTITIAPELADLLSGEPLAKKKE
Assay: PBM E-score (8-mer binding enrichment) (E-score (-0.5 to 0.5)); higher = stronger / more preferred TF binding; most listed sequences are background and not binding sites
Settings: protein concentration: 200 nM; construct: GST-full length
In short: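 PURExpress in vitro transcription/translation supplied GST-tagged yeast transcription factors, either full-length or DNA-binding domain. Applied at about 100-200 nM to universal all-10-mer Agilent arrays double-stranded by primer extension, the bound protein was detected with fluorescent anti-GST. E-scores, modified Wilcoxon-Mann-Whitney statistics, were given by the Universal PBM Analysis Suite to ungapped eight-base words pooled with their reverse complements after masliner normalisation.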

Compared with CCTGTCCA, CCAGTGAG is higher in “PBM E-score” value: -0.321 for the first, -0.189 for the second.

First: CTAACATC
Second: ACAAGGCT
The “PBM E-score” value of the first is higher: 0.205 for the first, 0.145 for the second.

Going from TACGTCGA to CCACCGCG, the “PBM E-score” value falls from 0.0708 to -0.186.

Going from TACTCCGA to CTGGGATC, the “PBM E-score” value falls from -0.0648 to -0.141.

Going from ACGTCCTG to CAGAATAG, the “PBM E-score” value rises from -0.105 to -0.0888.

Compared with GCCCGGAA, CCAGCCTC is lower in “PBM E-score” value: -0.131 for the first, -0.149 for the second.

Compared with GCGTTGGA, ATGAGCCC is lower in “PBM E-score” value: 0.115 for the first, -0.13 for the second.

First: CTCATTCA
Second: CATTATAC
The “PBM E-score” value of the first is lower: -0.126 for the first, 0.292 for the second.

Compared with GAGCCTGC, AAACGGAC is higher in “PBM E-score” value: -0.196 for the first, -0.0539 for the second.

Compared with CTTAAGAA, AAGGCGCC is lower in “PBM E-score” value: 0.0585 for the first, -0.118 for the second.

First: TCATGTCA
Second: CCAAGTCC
The “PBM E-score” value of the first is higher: 0.359 for the first, -0.309 for the second.

First: TAAAGCCA
Second: CCGGGGGA
The “PBM E-score” value of the first is higher: 0.107 for the first, -0.289 for the second.

First: AGACAGGA
Second: GAGGCATC
The “PBM E-score” value of the first is higher: 0.0355 for the first, -0.268 for the second.

First: ATCGCTGC
Second: ATGCAATG
The “PBM E-score” value of the first is lower: -0.136 for the first, 0.0723 for the second.

First: GAAACGCC
Second: AGTTTCGG
The “PBM E-score” value of the first is higher: -0.0175 for the first, -0.031 for the second.

Compared with TGCAGCAA, GGGGTTTA is lower in “PBM E-score” value: -0.0391 for the first, -0.0666 for the second.

Going from AAGGGGCA to ACCCTACT, the “PBM E-score” value rises from -0.215 to -0.0148.

First: GCACAACC
Second: CAAATCTC
The “PBM E-score” value of the first is lower: -0.138 for the first, -0.132 for the second.

Going from CTGATCTC to AAATGGGT, the “PBM E-score” value rises from -0.211 to 0.0412.

Compared with ATTATGGA, CAGTTGCC is higher in “PBM E-score” value: -0.0458 for the first, -0.0299 for the second.

Compared with CAAGCTGA, GATGTTGA is higher in “PBM E-score” value: 0.0482 for the first, 0.276 for the second.

Compared with CCCTGTGC, CTTCCTTA is higher in “PBM E-score” value: -0.0862 for the first, 0.047 for the second.

Compared with AGGATGGC, CAGAGTGA is higher in “PBM E-score” value: -0.123 for the first, -0.0354 for the second.

First: ACACTCCG
Second: AACTCGAT
The “PBM E-score” value of the first is lower: 0.00523 for the first, 0.133 for the second.

Compared with AAGACCAC, CTCATTGA is lower in “PBM E-score” value: -0.0544 for the first, -0.0946 for the second.

Compared with CAGTGTGC, ATAAGATA is higher in “PBM E-score” value: -0.145 for the first, 0.12 for the second.

First: CGACAGTC
Second: AGTATAAG
The “PBM E-score” value of the first is lower: -0.2 for the first, 0.00671 for the second.

Going from AGCAGCTG to CGAGAGTA, the “PBM E-score” value rises from -0.0747 to 0.0592.

Compared with AAACCGTT, GTAGGCGA is lower in “PBM E-score” value: 0.067 for the first, -0.0868 for the second.

Going from GTAGCCAA to CGCTGGCC, the “PBM E-score” value falls from -0.121 to -0.324.

Compared with CCAGAGAG, AATCACCG is higher in “PBM E-score” value: -0.382 for the first, -0.00358 for the second.

Compared with CCGCTATA, TGCCGAAA is higher in “PBM E-score” value: -0.0834 for the first, 0.122 for the second.

Compared with AATAGGAA, AGGCTATC is lower in “PBM E-score” value: 0.0134 for the first, -0.0617 for the second.

Compared with ACGTGGGA, GTACTCAA is higher in “PBM E-score” value: -0.143 for the first, 0.0572 for the second.

Going from AATTCGAT to AGAGGTTA, the “PBM E-score” value falls from 0.0905 to 0.0615.

Going from ACAACTCA to CCAGACGG, the “PBM E-score” value falls from 0.194 to -0.274.

Going from CGATGCCC to CGGTGCGA, the “PBM E-score” value rises from -0.351 to -0.141.

First: AATTGGAA
Second: ATTGGAGA
The “PBM E-score” value of the first is higher: -0.0256 for the first, -0.0969 for the second.

Compared with CCCCTGCC, AACAGGGT is higher in “PBM E-score” value: -0.248 for the first, -0.088 for the second.

First: GAATACGA
Second: TCACATGA
The “PBM E-score” value of the first is higher: 0.241 for the first, 0.226 for the second.

Going from CACGAGTA to AACTACTG, the “PBM E-score” value falls from 0.239 to -0.0925.

Compared with GGGGACAA, AGTTGCGC is higher in “PBM E-score” value: -0.0632 for the first, -0.00931 for the second.

Going from ATAGACAA to ATGGATAG, the “PBM E-score” value falls from 0.136 to -0.242.

First: GGGGGTAA
Second: AAGTTAGT
The “PBM E-score” value of the first is lower: -0.193 for the first, 0.155 for the second.

First: AAGTAACG
Second: GGGGGGGA
The “PBM E-score” value of the first is higher: 0.0658 for the first, -0.471 for the second.

Compared with ACAGGGTA, GATGAGGA is lower in “PBM E-score” value: 0.0548 for the first, -0.236 for the second.

Compared with GGATTGAA, GTATGAAA is higher in “PBM E-score” value: -0.0571 for the first, 0.226 for the second.

Compared with TATAGACA, ATTCGAGC is lower in “PBM E-score” value: 0.205 for the first, -0.0797 for the second.

Compared with AGGCGTTC, CGCTGCCA is lower in “PBM E-score” value: -0.0931 for the first, -0.207 for the second.

Compared with CCACGATC, GTCTTTGA is lower in “PBM E-score” value: 0.172 for the first, 0.0224 for the second.

First: AGCAGACG
Second: ACGTTTAT
The “PBM E-score” value of the first is lower: -0.26 for the first, 0.182 for the second.

Going from CAACATCA to TAGGTACA, the “PBM E-score” value falls from 0.306 to 0.161.

Compared with CCTGCGGA, ACCCCGGC is lower in “PBM E-score” value: -0.117 for the first, -0.126 for the second.

First: ACCCCCCC
Second: CTCAAGTA
The “PBM E-score” value of the first is lower: -0.385 for the first, 0.127 for the second.

Compared with GATAACGC, AGGCCAGC is lower in “PBM E-score” value: 0.199 for the first, -0.178 for the second.

Compared with CAGATACA, CGATAACG is lower in “PBM E-score” value: 0.304 for the first, 0.0685 for the second.

Going from CATGCATC to ACCAAAAT, the “PBM E-score” value falls from 0.127 to 0.0777.

First: TACCCGTA
Second: CTCCTACC
The “PBM E-score” value of the first is higher: -0.0142 for the first, -0.275 for the second.

First: ATATCGGA
Second: CAGCCTGG
The “PBM E-score” value of the first is higher: -0.0245 for the first, -0.219 for the second.

First: GTACGGAA
Second: AGACTGTG
The “PBM E-score” value of the first is lower: -0.0247 for the first, 0.0767 for the second.

First: AGTTGTTC
Second: CAAAAAGG
The “PBM E-score” value of the first is higher: 0.095 for the first, -0.141 for the second.

Going from ATATCCGC to CTAATGTC, the “PBM E-score” value rises from -0.118 to 0.00838.

Compared with TACGGGGA, ATCAGCCA is lower in “PBM E-score” value: -0.243 for the first, -0.308 for the second.

First: AGGCCATC
Second: AGCAGTTC
The “PBM E-score” value of the first is lower: -0.215 for the first, -0.11 for the second.

Going from AAATGGAC to TCAGGTAA, the “PBM E-score” value falls from 0.127 to 0.0489.

Compared with CGTTATAA, TCACTCCA is lower in “PBM E-score” value: 0.222 for the first, -0.183 for the second.

Compared with CAGCGCTC, ATTAAAGC is higher in “PBM E-score” value: -0.155 for the first, 0.0897 for the second.

Going from CGCGTAAC to CGGTCAGA, the “PBM E-score” value falls from 0.342 to -0.199.

Going from CTTCGCGA to TCTTATAA, the “PBM E-score” value rises from -0.132 to 0.121.

Compared with TCGGATAA, AAAAGGGT is lower in “PBM E-score” value: 0.0696 for the first, -0.103 for the second.

Going from AGTCCCCA to ATCGCCGA, the “PBM E-score” value rises from -0.288 to -0.162.

Going from CATTCGCC to AAAGATTT, the “PBM E-score” value rises from -0.142 to -0.0325.

First: CGTTATCC
Second: CTCGGATC
The “PBM E-score” value of the first is higher: 0.0446 for the first, -0.213 for the second.

First: CAACTCTG
Second: AACAGACC
The “PBM E-score” value of the first is lower: -0.11 for the first, 0.172 for the second.

Compared with CCTGACCG, ACGCGGTA is higher in “PBM E-score” value: -0.26 for the first, 0.146 for the second.

Going from GTTCAGTA to GCATATAC, the “PBM E-score” value falls from 0.174 to 0.0337.

Compared with CCGGTGCC, AGGCTGTG is higher in “PBM E-score” value: -0.378 for the first, -0.019 for the second.

Compared with ACCTAGCC, ATGCCATC is higher in “PBM E-score” value: -0.205 for the first, -0.0946 for the second.

First: AACCCGGA
Second: GGGCAAAA
The “PBM E-score” value of the first is lower: -0.174 for the first, -0.0548 for the second.

Going from GCAGGGAC to GAACGCTA, the “PBM E-score” value falls from -0.171 to -0.221.

Going from GCTAGAGC to ACGGGCAT, the “PBM E-score” value falls from 0.0126 to -0.0838.

Compared with CCTTCCAA, GTATAGCA is higher in “PBM E-score” value: -0.188 for the first, 0.165 for the second.

First: TACACCTA
Second: CATAGGCG
The “PBM E-score” value of the first is higher: 0.118 for the first, -0.0257 for the second.

First: CAGTCCGG
Second: CACAACAC
The “PBM E-score” value of the first is lower: -0.0752 for the first, 0.306 for the second.

Going from ATTGCTCC to AAATCATT, the “PBM E-score” value rises from -0.332 to 0.0564.

First: CTACGGTC
Second: CACAGTAC
The “PBM E-score” value of the first is lower: -0.184 for the first, 0.142 for the second.
